In the supplement of paper PMC10369915:
Some of the results follow. Rule as the data show it: active = 3.2 or more and inactive = the rest. The signal is at background level for most entries.

Experiments:
Assay in all cases: enrichment score (SH2-bound / input frequency) (ratio); bacterial display of known human phosphotyrosine sites (pTyr-Var adds point mutants) read by sequencing; higher = stronger binding; tyrosines were phosphorylated by kinases first
Settings in all cases: peptide library: pTyr-Var
SHP2 C-SH2 domain E139D = biological target: SHP2 C-SH2 domain E139D
[1] = biological target: SHP2 C-SH2 domain wild-type
SHP2 N-SH2 domain L43F = biological target: SHP2 N-SH2 domain L43F
SHP2 N-SH2 domain T42A = biological target: SHP2 N-SH2 domain T42A
SHP2 N-SH2 domain T52S = biological target: SHP2 N-SH2 domain T52S
[2] = biological target: SHP2 N-SH2 domain wild-type

Measured: enrichment score
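Also: displayed peptides selected on beads carrying the immobilized SH2 domain, with library peptides lacking any tyrosine serving as negative controls.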

GQETSYIEDNC [PAH_Y24]
inactive: SHP2 C-SH2 domain E139D 0.869 | [1] 0.589 | SHP2 N-SH2 domain L43F 0.842 | SHP2 N-SH2 domain T42A 0.711 | SHP2 N-SH2 domain T52S 0.605 | [2] 1.1

GSTLSYFGLAA [P2RX7_Y343]
inactive: SHP2 C-SH2 domain E139D 0.995 | [1] 0.919 | SHP2 N-SH2 domain L43F 1.04 | SHP2 N-SH2 domain T42A 0.733 | SHP2 N-SH2 domain T52S 1.09 | [2] 0.925

GEEIKYMLWLL [OTC_Y55_S60L]
inactive: SHP2 C-SH2 domain E139D 2.43 | [1] 2.52 | SHP2 N-SH2 domain L43F 2.18 | SHP2 N-SH2 domain T42A 2.06 | SHP2 N-SH2 domain T52S 2.43 | [2] 2.11

NGSKGYAYVHF [PABPC5_Y147]
inactive: SHP2 C-SH2 domain E139D 1.73 | [2] 1.47
active: [1] 3.82 | SHP2 N-SH2 domain L43F 3.22 | SHP2 N-SH2 domain T42A 8.17 | SHP2 N-SH2 domain T52S 4.09

FADIAYNYHHG [PAH_Y166_R169H]
inactive: SHP2 C-SH2 domain E139D 0.965 | [1] 0.738 | SHP2 N-SH2 domain L43F 0.854 | SHP2 N-SH2 domain T42A 0.677 | SHP2 N-SH2 domain T52S 0.722 | [2] 0.929

FADIAYSFRHG [PAH_Y166_N167S_YF]
inactive: SHP2 C-SH2 domain E139D 1.01 | [1] 0.882 | SHP2 N-SH2 domain L43F 0.965 | SHP2 N-SH2 domain T42A 1.01 | SHP2 N-SH2 domain T52S 1.03 | [2] 0.886

EVQKDYEHLFK [PAM16_Y77_N76D]
inactive: SHP2 C-SH2 domain E139D 0.614 | [1] 0.594 | SHP2 N-SH2 domain L43F 0.607 | SHP2 N-SH2 domain T42A 0.514 | SHP2 N-SH2 domain T52S 0.508 | [2] 0.651

SLLKDYSPQLQ [OTC_Y345_T343K]
inactive: SHP2 C-SH2 domain E139D 0.847 | [1] 0.851 | SHP2 N-SH2 domain L43F 1.05 | SHP2 N-SH2 domain T42A 0.755 | SHP2 N-SH2 domain T52S 1.06 | [2] 1.03

LRRFIYRPPDQ [OTOF_Y1231_R1236Q]
inactive: SHP2 C-SH2 domain E139D 0.187 | [1] 0.294 | SHP2 N-SH2 domain L43F 0.375 | SHP2 N-SH2 domain T42A 0.325 | SHP2 N-SH2 domain T52S 0.367 | [2] 0.258

GSTLSYFGLAT [P2RX7_Y343_A348T]
inactive: SHP2 C-SH2 domain E139D 0.932 | [1] 1.04 | SHP2 N-SH2 domain L43F 0.978 | SHP2 N-SH2 domain T42A 1.09 | SHP2 N-SH2 domain T52S 0.701 | [2] 1.09

HCYNSYTYPRL [PAK7_Y316_S312C]
inactive: SHP2 C-SH2 domain E139D 1.17 | [1] 1.47 | SHP2 N-SH2 domain L43F 1.65 | SHP2 N-SH2 domain T42A 0.997 | SHP2 N-SH2 domain T52S 1.19 | [2] 1.05

REEIKYMLWLS [OTC_Y55_G50R]
inactive: SHP2 C-SH2 domain E139D 0.971 | [1] 1 | SHP2 N-SH2 domain L43F 0.843 | SHP2 N-SH2 domain T42A 1.14 | SHP2 N-SH2 domain T52S 0.947 | [2] 1.58

FADIAYNYRQG [PAH_Y166_H170Q]
inactive: SHP2 C-SH2 domain E139D 0.99 | [1] 0.85 | SHP2 N-SH2 domain L43F 1.06 | SHP2 N-SH2 domain T42A 0.847 | SHP2 N-SH2 domain T52S 0.919 | [2] 0.95

HPFNSYTFPRL [PAK5_Y316_S312P_YF]
inactive: SHP2 C-SH2 domain E139D 1.12 | [1] 0.983 | SHP2 N-SH2 domain L43F 1.24 | SHP2 N-SH2 domain T42A 1.13 | SHP2 N-SH2 domain T52S 1.11 | [2] 0.961

FADIAYIFRHG [PAH_Y166_N167I_YF]
inactive: SHP2 C-SH2 domain E139D 2.01 | [1] 2.08 | SHP2 N-SH2 domain L43F 1.67 | SHP2 N-SH2 domain T42A 1.65 | SHP2 N-SH2 domain T52S 1.66 | [2] 1.91

HGEAFYSEVKP [PAK5_Y182_YF]
inactive: SHP2 C-SH2 domain E139D 0.796 | [1] 0.962 | SHP2 N-SH2 domain L43F 0.746 | SHP2 N-SH2 domain T42A 0.801 | SHP2 N-SH2 domain T52S 0.59 | [2] 0.71

FADIAYNFRQG [PAH_Y166_H170Q_YF]
inactive: SHP2 C-SH2 domain E139D 0.91 | [1] 0.811 | SHP2 N-SH2 domain L43F 0.949 | SHP2 N-SH2 domain T42A 0.909 | SHP2 N-SH2 domain T52S 0.891 | [2] 1.02

SLFPGYNFRFA [P2RX7_Y291_YF]
inactive: SHP2 C-SH2 domain E139D 1.63 | [1] 1.39 | SHP2 N-SH2 domain L43F 1.54 | SHP2 N-SH2 domain T42A 1.66 | SHP2 N-SH2 domain T52S 1.54 | [2] 1.93

GEEIKYTLWLS [OTC_Y55_M56T]
inactive: SHP2 C-SH2 domain E139D 0.61 | [1] 0.989 | SHP2 N-SH2 domain L43F 0.88 | SHP2 N-SH2 domain T42A 0.722 | SHP2 N-SH2 domain T52S 0.795 | [2] 1.4

DVLEFYNSKKT [PAK1_Y131]
inactive: SHP2 C-SH2 domain E139D 1.06 | [1] 1.09 | SHP2 N-SH2 domain L43F 0.914 | SHP2 N-SH2 domain T42A 0.996 | SHP2 N-SH2 domain T52S 0.966 | [2] 1.22

HLTNQYMQRVA [PABPC4_Y382]
inactive: SHP2 C-SH2 domain E139D 0.777 | [1] 0.844 | SHP2 N-SH2 domain L43F 0.967 | SHP2 N-SH2 domain T42A 0.603 | SHP2 N-SH2 domain T52S 0.727 | [2] 0.838

FADIAYNFRHR [PAH_Y166_G171R_YF]
inactive: SHP2 C-SH2 domain E139D 0.594 | [1] 0.549 | SHP2 N-SH2 domain L43F 0.556 | SHP2 N-SH2 domain T42A 0.546 | SHP2 N-SH2 domain T52S 0.71 | [2] 0.615

SKAYAYVHFDS [PABPC5_Y149_G146A]
inactive: SHP2 C-SH2 domain E139D 2.95 | [2] 2.22
active: [1] 4.72 | SHP2 N-SH2 domain L43F 3.85 | SHP2 N-SH2 domain T42A 7.41 | SHP2 N-SH2 domain T52S 4.52

HGEAYYSEVKA [PAK5_Y182_P187A]
inactive: SHP2 C-SH2 domain E139D 0.611 | [1] 0.704 | SHP2 N-SH2 domain L43F 0.766 | SHP2 N-SH2 domain T42A 0.703 | SHP2 N-SH2 domain T52S 0.555 | [2] 0.821

HCFNSYTFPRL [PAK7_Y316_S312C_YF]
inactive: SHP2 C-SH2 domain E139D 1.11 | [1] 1.42 | SHP2 N-SH2 domain L43F 1.2 | SHP2 N-SH2 domain T42A 1.1 | SHP2 N-SH2 domain T52S 1.06 | [2] 1.36

NGSKAYAYVHF [PABPC5_Y147_G146A]
inactive: SHP2 C-SH2 domain E139D 2.7 | SHP2 N-SH2 domain L43F 2.97 | [2] 1.33
active: [1] 4.65 | SHP2 N-SH2 domain T42A 6.47 | SHP2 N-SH2 domain T52S 3.84

HGEAFYSEVKA [PAK5_Y182_P187A_YF]
inactive: SHP2 C-SH2 domain E139D 1.07 | [1] 1.4 | SHP2 N-SH2 domain L43F 1.05 | SHP2 N-SH2 domain T42A 0.907 | SHP2 N-SH2 domain T52S 0.932 | [2] 1.1

ELTAKYLNFFQ [P3H4_Y181_YF]
inactive: SHP2 C-SH2 domain E139D 1.35 | [1] 1.34 | SHP2 N-SH2 domain L43F 1.3 | SHP2 N-SH2 domain T42A 2.01 | SHP2 N-SH2 domain T52S 1.39 | [2] 1.28

HPYNSYTYPRL [PAK5_Y316_S312P]
inactive: SHP2 C-SH2 domain E139D 0.726 | [1] 1.29 | SHP2 N-SH2 domain L43F 0.756 | SHP2 N-SH2 domain T42A 0.827 | SHP2 N-SH2 domain T52S 0.712 | [2] 0.629

FADIAYNFRHA [PAH_Y166_G171A_YF]
inactive: SHP2 C-SH2 domain E139D 0.984 | [1] 1.12 | SHP2 N-SH2 domain L43F 1.1 | SHP2 N-SH2 domain T42A 1.34 | SHP2 N-SH2 domain T52S 1.24 | [2] 1.14

GEEIKDMLWLS [OTC_Y55_Y55D]
inactive: SHP2 C-SH2 domain E139D 0.718 | [1] 0.651 | SHP2 N-SH2 domain L43F 0.637 | SHP2 N-SH2 domain T42A 0.679 | SHP2 N-SH2 domain T52S 0.688 | [2] 0.733

FADIAYNYRRG [PAH_Y166_H170R]
inactive: SHP2 C-SH2 domain E139D 0.811 | [1] 0.53 | SHP2 N-SH2 domain L43F 0.621 | SHP2 N-SH2 domain T42A 0.526 | SHP2 N-SH2 domain T52S 0.551 | [2] 0.582

FADIAYNFRHG [PAH_Y166_YF]
inactive: SHP2 C-SH2 domain E139D 0.92 | [1] 1.01 | SHP2 N-SH2 domain L43F 0.944 | SHP2 N-SH2 domain T42A 0.865 | SHP2 N-SH2 domain T52S 0.944 | [2] 0.978

SILAVYSKDNY [PANK2_Y400]
inactive: SHP2 C-SH2 domain E139D 1.19 | [1] 0.898 | SHP2 N-SH2 domain L43F 0.978 | SHP2 N-SH2 domain T42A 0.902 | SHP2 N-SH2 domain T52S 0.982 | [2] 1.18

SLLTDYSPQLQ [OTC_Y345]
inactive: SHP2 C-SH2 domain E139D 0.732 | [1] 0.786 | SHP2 N-SH2 domain L43F 0.666 | SHP2 N-SH2 domain T42A 1.09 | SHP2 N-SH2 domain T52S 0.927 | [2] 0.95

LIGTPYWMAPE [PAK5_Y608_V604I]
inactive: SHP2 C-SH2 domain E139D 1.34 | [1] 2.17 | SHP2 N-SH2 domain L43F 1.47 | SHP2 N-SH2 domain T42A 1.56 | SHP2 N-SH2 domain T52S 1.51 | [2] 1.24

RAIELCNDKEK [OTULIN_Y244_Y244C]
inactive: SHP2 C-SH2 domain E139D 0.632 | [1] 0.654 | SHP2 N-SH2 domain L43F 0.467 | SHP2 N-SH2 domain T42A 0.475 | SHP2 N-SH2 domain T52S 0.442 | [2] 0.534
